Source: PubChem BioAssay AID1240 (Sanford-Burnham Center for Chemical Genomics, 2008)
The campaign covered roughly 50,000 compounds. About 800 (1.6%) showed an effect of 50% or more. The list shows a part of the results.

target: Bcl-2-like protein 10 (Homo sapiens) (UniProt Q9HD36); test: TR3 peptide-Bcl-B binding displacers, biochemical primary FP assay, phenotype converters (AID 1240); settings: GST-Bcl-B / FITC-TR3 peptide fluorescence polarization; stronger effect = higher value; compound at 3.75 mg/L;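 note: 0% = Bcl-B with tracer peptide and DMSO and 100% = tracer peptide lacking Bcl-B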
Chain of UniProt Q9HD36 (Q9HD36 whole entry, looked up): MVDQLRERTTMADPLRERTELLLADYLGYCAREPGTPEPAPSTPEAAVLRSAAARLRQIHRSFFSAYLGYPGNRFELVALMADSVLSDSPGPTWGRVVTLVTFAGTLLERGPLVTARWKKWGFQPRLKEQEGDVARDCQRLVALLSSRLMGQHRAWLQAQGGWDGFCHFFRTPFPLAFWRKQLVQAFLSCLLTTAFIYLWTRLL

Row | SMILES | displacement [%]
1 | CNC(=O)C(=O)NCCN1CCN(S(=O)(=O)c2ccc([N+](=O)[O-])cc2)CC1 | -3
2 | COc1ccc(-c2cc3c(ccc4ccccc43)oc2=O)cc1OC | 19.9
3 | O=C(Nc1nccs1)c1ccc(Oc2ccc(C(=O)Nc3nccs3)cc2)cc1 | -0.1
4 | CCOc1ccccc1N(CC(=O)Nc1ccccc1C(=O)OC)S(=O)(=O)c1ccccc1 | 10.7
5 | O=C(NCC1CCCO1)c1ccccc1 (stereo not given) | -8
6 | Cc1ccc2[nH]c(C)c(CC(=O)N/N=C/c3ccco3)c2c1 | -5.6
7 | COc1ccc(CC(=O)NNC(=O)c2ccccc2Cl)cc1 | -8.7
8 | O=C(O)c1ccc(NC(=O)c2ccc(Br)cc2)cc1 | -4.2
9 | C=CCn1c(SCC(=O)NCc2cccnc2)nc2sc3c(c2c1=O)CCCC3 | -2.5
10 | O=C(CSc1nc2ccc([N+](=O)[O-])cc2[nH]1)c1ccc(Br)cc1 | 11.9
11 | N#CC(c1ccc(O)cc1)N1CCCCC1 (stereo not given) | -9.1
12 | COc1ccc(C2CC(=O)C3=C(C2)Nc2ccccc2NC3c2ccc(Cl)c(Cl)c2)cc1OC (stereo not given) | 5.9
13 | CCOC(=O)c1ccc(NC(=O)c2cc3ccccc3oc2=O)cc1 | -5.5
14 | CCN(CC)c1ccc(NC(=O)COc2cc(C)c(Cl)c(C)c2)cc1 | 7.9
15 | CC(C)(C)c1cc(N=NC(=O)c2ccncc2)cc(C(C)(C)C)c1O | -5.4
16 | CCOc1cccc(-c2nc3cc(OC)c(OC)cc3c(=O)o2)c1 | 11.8
17 | COc1ccc(/C(N)=N/OC(=O)c2cccc(I)c2)cc1OC | 8
18 | O=C(Nc1ccc(Br)cc1F)C(Sc1ccccc1)c1ccccc1 (stereo not given) | -5.7
19 | Oc1ccc(O)c(-c2csc(NN=C(c3ccccc3)c3ccccc3)n2)c1 | -12.7
20 | COC(=O)c1c(-c2ccc(Br)cc2)csc1NC(=O)C1CCCCC1C(=O)O (stereo not given) | -6.6
21 | COc1ccc(N2C(=O)NC(=O)/C(=C/c3cc([N+](=O)[O-])cc(OC)c3O)C2=O)cc1 | -15.8
22 | CN1C(=O)C(=O)c2cc(Br)ccc21 | 19.2
23 | CCOc1ccc(NC(=O)CC2S/C(=N\N=C(/C)c3cccc(NC(C)=O)c3)NC2=O)cc1 (stereo not given) | -11
24 | Cc1ccc2nc(-c3nonc3N)[nH]c2c1 | 3.2

Row | SMILES | displacement [%]
25 | Cc1sc2nc(SCC(=O)NCCCN3CCOCC3)n(-c3ccccc3)c(=O)c2c1C | 0.4
26 | COc1ccccc1/C=N/n1cnnc1 | 17.6
27 | CCCCNCCCCOc1cccc(Cl)c1 | 11.8
28 | COc1ccccc1/C=C1\SC(N2CCCCC2)=NC1=O | -4.9
29 | CC(C1CC1)N(Cc1ccccc1)C(=O)c1ccc(F)cc1 (stereo not given) | 9.2
30 | O=C(NC(C(=O)c1ccccc1)N1CCCC1)c1ccco1 (stereo not given) | 0.8
31 | O=C(/C=C/c1ccc(-c2ccc(Cl)cc2Cl)o1)Nc1ccc(N2CCOCC2)cc1 | 83
32 | COc1ccccc1NC(=O)c1ccccc1NC(=O)c1ccccc1C | -7.2
33 | Cc1ccc(/C(O)=C2/C(=O)C(=O)N(CCCCCC(=O)O)C2c2cccc(F)c2)cc1 (stereo not given) | -3.4
34 | C=CCN1C(=O)/C(=C\c2ccc(CC)cc2)C(=O)NC1=S | -27.5
35 | COc1cc(/C=C2\C(=O)NC(=S)N(c3cccc(Br)c3)C2=O)cc(Cl)c1O | -1.6
36 | CC1(C)CC(NC(=O)CCc2ccccc2)CC(C)(C)N1 | 12.3
37 | CC(C)C1=NN2C(=N)/C(=C/c3ccc(-c4cccc(C(=O)O)c4)o3)C(=O)N=C2S1 | -26.4
38 | Cc1cccc(N2CCC(N=CN(C)C)=N2)c1 | 2.2
39 | CCOc1ccc(C(=O)COC(=O)CC)cc1 | -2.8
40 | CCOc1ccc(NC2=C(Cl)C(=O)N(c3cccc(Cl)c3)C2=O)cc1 | 10.1
41 | O=C(c1ccc(N2CCNCC2)cc1)c1cccc(F)c1 | -8.3
42 | Cc1ccc(C23CC4CC(C2)CC(c2csc(N)n2)(C4)C3)cc1 | -4.6
43 | S=c1[nH]cnc2sc3c(c12)CCC3 | -9.1
44 | Cc1ccc(/C(O)=C2\C(=O)C(=O)N(CCCC(=O)O)C2c2ccc(Cl)cc2)cc1 (stereo not given) | -11.7
45 | Cc1cc(C)n(C(=O)C(C)Oc2ccc(Cl)cc2)n1 (stereo not given) | -4.4
46 | CSc1ccc(Cl)c(C(=O)Nc2ccc(Cl)cn2)c1 | -39.3
47 | COc1ccccc1N1C(=O)CC(N2CCN(C(c3ccccc3)c3ccccc3)CC2)C1=O (stereo not given) | 10.6
48 | CCOc1ccccc1N/C(=N\S(=O)(=O)c1ccc(C)cc1)Nc1nc(C)cc(C)n1 | -4

Row | SMILES | displacement [%]
49 | CCOC(=O)c1ccc(-n2c(-c3ccccc3)nc3ccccc3c2=O)cc1 | -2.3
50 | COC(=O)c1c(C)oc2ccc(OCC(=O)c3ccccc3)cc12 | 13.2
51 | COc1ccc(OC)c(NC2=NS(=O)(=O)c3cc([N+](=O)[O-])ccc32)c1 | 7.9
52 | CC1(C)C(c2ccccc2)=NC(c2ccc(C(F)(F)F)cc2)N1O (stereo not given) | -16.9
53 | O=C(O)C1C(C(=O)Nc2ccc(Br)cc2)C2C=CC1C21CC1 (stereo not given) | -7.7
54 | CC(=O)c1ccc(-n2c(C)ccc2C)cc1 | 2.2
55 | CCOc1cc(C=C2C(=O)NC(=O)NC2=O)ccc1OCCOc1ccccc1C | 10.3
56 | Nc1cc(-c2cccc(Br)c2)nn1-c1ccccc1 | -9.8
57 | O=C1NC(=S)NC(=O)C1=Cc1ccc(OCCOc2ccccc2)cc1 | -5.2
58 | COc1cccc(N2C(=O)C(=O)/C(=C(\O)c3ccccc3)C2c2cccc(F)c2)c1 (stereo not given) | -11.6
59 | COc1ccccc1CNC(=O)c1cccc(Cl)c1 | -6.1
60 | Cc1n[nH]c(C)c1Sc1ccccc1N=Cc1cc(Cl)ccc1O | 0
61 | CCCN1CCC(=NNC(=O)c2cccc(Cl)c2)CC1 | 3.7
62 | C=CCN1C(=O)/C(=C\c2ccc(-c3ccccc3Cl)o2)SC1=S | 149
63 | O=C(Nn1c(=O)c2cc3c(=O)n(NC(=O)c4ccc(O)cc4)c(=O)c3cc2c1=O)c1ccc(O)cc1 | 0.1
64 | COc1cc(NC(=O)c2cnn3c2NC(c2cc(OC)c(OC)c(OC)c2)CC3C(F)(F)F)cc([N+](=O)[O-])c1 (stereo not given) | 8.1
65 | CCC(=S)/C=C1\Sc2ccc(OC)cc2N1CCCS(=O)(=O)O | 5.8
66 | CN(C)c1ccc(C=NC2=NN(c3ccccc3)CC2)cc1 | 19
67 | CC(C)(C)C(=O)CN1C2=NCCN2c2ccccc21 | -12.5
68 | NC(=O)c1ccc(NC(=O)CCN2C(=O)c3cccc([N+](=O)[O-])c3C2=O)cc1 | 4.5
69 | COc1cc2c(cc1OC)C(c1cccc([N+](=O)[O-])c1)=NCC2 | 2.5
70 | O=C(Nc1ccc(Cl)cc1)/C(=C\c1ccccc1Cl)NC(=O)c1ccccc1 | 0.8
